Laboratory results as given in the supplement of paper PMC5655136.
Values come from read counts of a selection and are noisy.

Tested on: NB7
Assay: fold depletion of shRNA, plasmid library share / infected cells without Dox share (9 days) (ratio); higher = more depleted after infection (more toxic, leaky expression from a Tet-inducible vector; NB7 is a neuroblastoma line without caspase-8)
[1] = shRNA pool: CD95L ORF + CD95L 3'UTR + Venus libraries
[2] = shRNA pool: CD95 ORF + CD95 3'UTR + Venus libraries
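Note: shRNA barcodes quantified by deep sequencing of PCR amplicons from cellular DNA, counts expressed as percent of each subpool, ratio averaged over two biological duplicates.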

| Sequence | fold depletion of shRNA [1] | fold depletion of shRNA [2] |
| --- | --- | --- |
| GGAGTGAAGTATAAGAAGGGT | 0.827 | – |
| GGAGTGTATGCAGAGGATGAA | – | 2.66 |
| GGAGTTCGTGACCGCCGCCGG | 1.47 | 1.13 |
| GGATCACTCTCGGCATGGACG | 1.77 | – |
| GGATCCAGATCTAACTTGGGG | – | 0.226 |
| GGATCTGGTGATGATGGAGGG | 3.99 | – |
| GGATGAAAGATTAAGATTATG | – | 1.96 |
| GGATGAACCAGACTGCGTGCC | – | 1.58 |
| GGATGGAAAAGGAAGACTAGA | 1.65 | – |
| GGATGTTTAAAATCTAGTTGG | – | 1.81 |
| GGATGTTTCAGCTCTTCCACC | 8.42 | – |
| GGATTCTTTCCATTATGATTC | 1.37 | – |
| GGATTGGAATTGAGGAAGACT | – | 1.36 |
| GGATTGGGCCTGGGGATGTTT | 0.209 | – |
| GGATTTAAGGGATGGAAAAGG | 0.93 | – |
| GGATTTAGGAATTGCTCTTGT | – | 1.2 |
| GGATTTTTTTGCCCCTTGTGT | – | 5.65 |
| GGCAACATCCTGGGGCACAAG | 1.67 | 2.12 |
| GGCAACTACAAGACCCGCGCC | 1.67 | 1.04 |
| GGCAAGACTGCCCTTAGAAAT | – | 1.37 |
| GGCAAGCTGACCCTGAAGCTG | 1.51 | 1.99 |
| GGCAAGCTGCCCGTGCCCTGG | 0.499 | 1.31 |
| GGCAATAAATTTATCTGATGT | – | 0.949 |
| GGCACAAGCTGGAGTACAACT | 3.17 | 1.89 |

| Sequence | fold depletion of shRNA [1] | fold depletion of shRNA [2] |
| --- | --- | --- |
| GGCACCGAGAATGTTGTATTC | 2.95 | – |
| GGCAGATGTGGGCCCGCAGCA | 2.74 | – |
| GGCAGATTGAAAAGGACACCT | 1.21 | – |
| GGCAGCTTATACATAGCAATG | – | 1.63 |
| GGCAGTGTTCAATCTTACCAG | 0.777 | – |
| GGCATCAACTTCATGGAAAGA | – | 1.35 |
| GGCATCAAGGCCAACTTCAAG | 1.18 | 2.5 |
| GGCATCGACTTCAAGGAGGAC | 1.64 | 1.16 |
| GGCATCTAACATATGATTCTG | – | 1.12 |
| GGCATCTGGACCCTCCTACCT | – | 2.09 |
| GGCATGGACGAGCTGTACAAG | – | 3.7 |
| GGCCAACTTCAAGATCCGCCA | 0.979 | 0.988 |
| GGCCAATGCCCCACTGGCAGC | 0.873 | – |
| GGCCAATTCTGCCATAAGCCC | – | 2.61 |
| GGCCACAAGTTCAGCGTGTCC | – | 1.49 |
| GGCCACCACCACCACCGCCAC | 0.429 | – |
| GGCCACCCCAGTCCACCCCCT | 0.275 | – |
| GGCCCACCCTCGTGACCACCC | 0.396 | 0.639 |
| GGCCCATTTAACAGGCAAGTC | 0.695 | – |
| GGCCCCGTGCTGCTGCCCGAC | 0.827 | 0.417 |
| GGCCCCTCCAGGCACAGTTCT | 1.12 | – |
| GGCCTGCAGTGCTTCGCCCGC | 2.12 | 1.09 |
| GGCCTGCATCATGATGGCCAA | – | 1.01 |
| GGCCTTGCTACCTCAAGGGGG | 1.37 | – |

| Sequence | fold depletion of shRNA [1] | fold depletion of shRNA [2] |
| --- | --- | --- |
| GGCCTTGTGATCAATGAAACT | 2.19 | – |
| GGCGACACCCTGGTGAACCGC | 0.398 | 2.73 |
| GGCGACGGCCCCGTGCTGCTG | 0.407 | 1.28 |
| GGCGACGTAAACGGCCACAAG | 3.39 | 2.73 |
| GGCGAGGAGCTGTTCACCGGG | 0.447 | 0.344 |
| GGCGAGGGCGAGGGCGATGCC | 0.491 | 0.454 |
| GGCGAGGGCGATGCCACCTAC | 0.801 | 0.659 |
| GGCGATGCCACCTACGGCAAG | 0.437 | 0.748 |
| GGCGGCGTGCAGCTCGCCGAC | 1.11 | 1.08 |
| GGCGTGCAGCTCGCCGACCAC | 1.34 | 2.74 |
| GGCTAACCCCACTCTATGAAT | – | 1.67 |
| GGCTACGGCCTGCAGTGCTTC | 0.314 | 0.528 |
| GGCTACGTCCAGGAGCGCACC | 0.726 | 1.35 |
| GGCTCTACCTCAAAGACCTTT | – | 0.524 |
| GGCTGCCATGTGAAGAGGGAG | 1.22 | – |
| GGCTGTAAATACTGCTTGGTT | – | 1.95 |
| GGCTGTACTTTGTATATTCCA | 3.84 | – |
| GGCTTAGAAGTGGAAATAAAC | – | 1.08 |
| GGCTTGCATAATAAGCTAAAG | 2.45 | – |
| GGCTTTGTCTTCTTCTTTTGC | – | 1.67 |
| GGGAAAACAAACTTCATCAAG | – | 1.05 |
| GGGAACCACAGCACAGGCCTG | 1.56 | – |
| GGGAAGACACCTATGGAATTG | 1.28 | – |
| GGGAAGGAGTACACAGACAAA | – | 1.7 |

| Sequence | fold depletion of shRNA [1] | fold depletion of shRNA [2] |
| --- | --- | --- |
| GGGACTCATTTCATTCCTAAC | 2.35 | – |
| GGGACTGCACAGTCAATGGGG | – | 1.24 |
| GGGACTGTCTTTCAGATACAT | 2.71 | – |
| GGGAGAAGCATGAAAAAGCAG | 0.609 | – |
| GGGATCACTCTCGGCATGGAC | 2.89 | 1.22 |
| GGGATGAACCAGACTGCGTGC | – | 0.852 |
| GGGATGGAAAAGGAAGACTAG | 1.27 | – |
| GGGATGTTTCAGCTCTTCCAC | 7.59 | – |
| GGGATTCTTTCCATTATGATT | 1.35 | – |
| GGGATTGGAATTGAGGAAGAC | – | 0.727 |
| GGGCACAAGCTGGAGTACAAC | 1.35 | 1.04 |
| GGGCAGTGTTCAATCTTACCA | 1.34 | – |
| GGGCATCGACTTCAAGGAGGA | 1.61 | 1.22 |
| GGGCATCTGGACCCTCCTACC | – | 1.49 |
| GGGCCCGCAGCAGCTACCTGG | 0.738 | – |
| GGGCCTTGCTACCTCAAGGGG | 0.468 | – |
| GGGCGACACCCTGGTGAACCG | 3.56 | 1.37 |
| GGGCGAGGAGCTGTTCACCGG | 1.37 | 1 |
| GGGCGAGGGCGATGCCACCTA | 1.69 | 1.34 |
| GGGCGATGCCACCTACGGCAA | 1.14 | 0.821 |
| GGGCTACGGCCTGCAGTGCTT | – | 1.35 |
| GGGCTGCCATGTGAAGAGGGA | 0.339 | – |
| GGGCTGTACTTTGTATATTCC | 1.15 | – |
| GGGGAAGATGATGAGCTACTG | 9.52 | – |

| Sequence | fold depletion of shRNA [1] | fold depletion of shRNA [2] |
| --- | --- | --- |
| GGGGACTGTCTTTCAGATACA | 2.61 | – |
| GGGGATGAACCAGACTGCGTG | – | 1.15 |
| GGGGATGTTTCAGCTCTTCCA | 1.1 | – |
| GGGGCACAAGCTGGAGTACAA | 1.21 | 1.76 |
| GGGGCAGTGTTCAATCTTACC | 0.389 | – |
| GGGGGACTGTCTTTCAGATAC | 2.28 | – |
| GGGGTCAATCTTGCAACAACC | 0.852 | – |
| GGGGTGTGTGTGTGTGTGTGT | 2.03 | – |
| GGGTACATTTTATCATTTATT | – | 1.1 |
| GGGTCAATCTTGCAACAACCT | 2.46 | – |
| GGGTCTTCTTACATGCATTTG | 4.12 | – |
| GGGTGAAGAGAAAGGAAGTAC | – | 1.54 |
| GGGTGGACAGCAGTGCCAGCT | 10.2 | – |
| GGGTGGCCTTGTGATCAATGA | 1.86 | – |
| GGGTGGCTTTGTCTTCTTCTT | – | 0.639 |
| GGGTGGTGCCCATCCTGGTCG | 0.704 | 0.708 |
| GGGTGTGTGTGTGTGTGTGTG | 1.93 | – |
| GGGTTCAAAATGTCTGTAGCT | 0.973 | – |
| GGGTTGCATTTGGTCAAGATT | 0.69 | – |
| GGTAAAAGTACGTAATTAAAT | – | 1.48 |
| GGTAAAATCATCATCTGGATT | – | 2.92 |
| GGTACATTTTATCATTTATTA | – | 1.24 |
| GGTAGGATTGGGCCTGGGGAT | 1.34 | – |
| GGTCAAGATTTTGAATGCTTC | 1.38 | – |

| Sequence | fold depletion of shRNA [1] | fold depletion of shRNA [2] |
| --- | --- | --- |
| GGTCAAGTAAGAAGACATGAA | 0.862 | – |
| GGTCAATTTTGAGGAATCTCA | 2.27 | – |
| GGTCCATGCCTCTGGAATGGG | 15.8 | – |
| GGTCCTGCTGGAGTTCGTGAC | 1.53 | 0.989 |
| GGTCGAGCTGGACGGCGACGT | 1.31 | 0.955 |
| GGTCTACATGAGGAACTCTAA | 1.51 | – |
| GGTCTTCTTACATGCATTTGA | 1.38 | – |
| GGTGAAACTAACAGATAAGCA | 1.6 | – |
| GGTGAAAGGAAAGCTAGGGAC | – | 2.03 |
| GGTGAACCGCATCGAGCTGAA | 0.589 | 0.75 |
| GGTGAAGAGAAAGGAAGTACA | – | 1.27 |
| GGTGAAGTTCGAGGGCGACAC | – | 2.3 |
| GGTGAGCAAGGGCGAGGAGCT | 1.38 | 1.33 |
| GGTGATGATGGAGGGGAAGAT | 1.37 | – |
| GGTGCCCATCCTGGTCGAGCT | 0.591 | 0.812 |
| GGTGCTCATCTTAATGGCCTA | – | 5.38 |
| GGTGGACAGCAGTGCCAGCTC | 1.13 | – |
| GGTGGCCTTGTGATCAATGAA | 0.485 | – |
| GGTGGCTTTGTCTTCTTCTTT | – | 0.545 |
